{"source": "paper doi:10.1101/822957", "about": "(bioRxiv, 2019)", "binders": {"B1": {"name": "Arr2 ([…], wild type)-TEV protease (natural protein)", "chain": "not shown"}}, "target": "NTSR1 (1-418, wild type)-TEV site-tTA (human, UniProt P30989)", "sequence (P30989 whole entry)": "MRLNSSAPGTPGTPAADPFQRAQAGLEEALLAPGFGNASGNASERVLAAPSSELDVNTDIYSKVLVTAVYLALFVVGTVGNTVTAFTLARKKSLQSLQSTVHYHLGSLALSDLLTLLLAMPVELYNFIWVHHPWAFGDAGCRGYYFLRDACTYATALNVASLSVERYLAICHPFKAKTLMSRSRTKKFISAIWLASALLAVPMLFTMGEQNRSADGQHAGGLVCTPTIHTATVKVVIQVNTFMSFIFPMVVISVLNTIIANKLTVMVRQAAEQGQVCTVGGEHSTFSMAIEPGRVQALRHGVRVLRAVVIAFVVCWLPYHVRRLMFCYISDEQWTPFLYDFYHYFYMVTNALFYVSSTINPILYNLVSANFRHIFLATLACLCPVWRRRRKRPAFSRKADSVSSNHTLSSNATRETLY", "test": "Tango assay"}
{"binder": "B1", "values": [{"measurement": "fold increase of binding activity with ML314 (against no agonist)", "value": "~3", "unit": "fold"}, {"measurement": "fold increase of binding activity with NTS (against no agonist)", "value": "~2", "unit": "fold"}, {"measurement": "fold increase of binding activity with NTS and ML314 (against no agonist)", "value": "~4", "unit": "fold"}]}
